Measurements: patent publication US12233161B1, “Lipids and lipid nanoparticle formulations” (LONGUIDE BIOPHARMA CORPORATION, priority 2024, dated 2025)
Where “and” joins values, the source holds several entries; their conditions need not be identical. Identical values can stand only once. At least one read-out could not be matched to a standard name with certainty.

Tested on: mice
Assay: In vivo delivery of FLuc-mRNA lipid nanoparticles in mice, in vivo imaging (IVIS)
Procedure: After the preparation was completed, the preparation was injected intramuscularly (mice rectus femoris muscle of the thigh), intravenously (mice tail vein), or intraperitoneal injection or subcutaneous injection (subcutaneous on the back), with approximately 75 μL per mouse, for a total of 3 mice. After a certain time of injection, in vivo imaging (PerkinElmer, IVIS Lumina III) was performed. 10-15 minutes before imaging, 200 μL of 15 mg/mL D-Luciferin working solution was injected intraperitoneally, and the imaging analysis was performed using an in vivo imager.

[1] = Fluc-mRNA LNP, route IV, organ: liver, formulation, molar ratio and N/P as in the table
[2] = Fluc-mRNA LNP, route IV, organ: lung, formulation, molar ratio and N/P as in the table
[3] = Fluc-mRNA LNP, route IV, organ: spleen, formulation, molar ratio and N/P as in the table

Compound | % of organ targeting [1] | % of organ targeting [2] | % of organ targeting [3] | IVIS [3] | other results
CCCCCCCCCCCCNC(=O)C(O)CN(CCCN(C)CCN(C)CCCN(CC(O)C(=O)NCCCCCCCCCCCC)CC(O)C(=O)NCCCCCCCCCCCC)CC(O)C(=O)NCCCCCCCCCCCC (stereo not shown) [Compound L0366] | 0.46% and 0.74% and 0.64% | 99.20% and 98.78% and 98.93% | 0.33% and 0.48% and 0.43% |  | 
CCCCCCCCCCCCNC(=O)C(O)CN(CCCN(C)CCN(C)CCCN(CC(O)C(=O)NCCCCCCCCCCCC)CC(O)C(=O)NCCCCCCCCCCCC)CC(O)C(=O)NCCCCCCCCCCCC (stereo not shown) [Compound L0365] | 0.41% and 0.60% and 0.46% | 98.57% and 98.46% and 99.20% | 1.03% and 0.93% and 0.33% |  | 
CCCCCCCCCCCCNC(=O)C(O)CN(CCCN(C)CCCN(CC(O)C(=O)NCCCCCCCCCCCC)CC(O)C(=O)NCCCCCCCCCCCC)CC(O)C(=O)NCCCCCCCCCCCC (stereo not shown) [Compound L0263] |  |  |  |  | IVIS (IV, body, DMG-PEG2000:DSPC:Chol:compound 1.00:10.00:33.00:56.00, N/P 42, Fluc-mRNA): 1.85E+08 and 1.42E+08; % of organ targeting (IV, liver, DMG-PEG2000:DSPC:Chol:compound 1.00:10.00:33.00:56.00, N/P 42): 1.75% and 0.40%; % of organ targeting (IV, lung, DMG-PEG2000:DSPC:Chol:compound 1.00:10.00:33.00:56.00, N/P 42): 97.57% and 99.21%; IVIS (IV, lung, DMG-PEG2000:DSPC:Chol:compound 1.00:10.00:33.00:56.00, N/P 42, Fluc-mRNA): 1.22E+09 and 6.80E+08; % of organ targeting (IV, spleen, DMG-PEG2000:DSPC:Chol:compound 1.00:10.00:33.00:56.00, N/P 42): 0.68% and 0.39%
CCCCCCCCCCNC(=O)C(O)CN(CCCN(C)CCCN(C)CCCN(CC(O)C(=O)NCCCCCCCCCC)CC(O)C(=O)NCCCCCCCCCC)CC(O)C(=O)NCCCCCCCCCC (stereo not shown) [Compound L0364] | 0.80% and 0.51% | 98.76% and 99.04% | 0.44% and 0.45% | 5.14E+05 and 5.39E+05 | IVIS [1]: 9.42E+05 and 5.99E+05; IVIS [2]: 1.16E+08 and 1.17E+08
CCCCCCCCC(CCCCCC)C(=O)NCCOC(=O)C(O)CN(CCN(C)CCN(CC(O)C(=O)OCCNC(=O)C(CCCCCC)CCCCCCCC)CC(O)C(=O)OCCNC(=O)C(CCCCCC)CCCCCCCC)CC(O)C(=O)OCCNC(=O)C(CCCCCC)CCCCCCCC (stereo not shown) [Compound L0374] | 71.89% and 95.16% | 1.03% and 0.46% |  | 4.52E+07 and 3.70E+07 | 
CCCCCCC(CCCCCC)C(=O)NCCOC(=O)C(O)CN(CCN(C)CCN(CC(O)C(=O)OCCNC(=O)C(CCCCCC)CCCCCC)CC(O)C(=O)OCCNC(=O)C(CCCCCC)CCCCCC)CC(O)C(=O)OCCNC(=O)C(CCCCCC)CCCCCC (stereo not shown) [Compound L0362] | 76.46% and 46.45% and 41.35% and 61.68% | 1.01% and 0.55% and 3.50% and 1.37% |  |  | 
